Measured values as given in paper PMC11995724, “Antibiotic target discovery by integrated phenotypic and activity-based profiling of electrophilic fragments” (Cell chemical biology, 2025).
About 75 (2%) of roughly 3,200 compounds showed an effect of 50% or more. Some of the results follow.

Each molecule was assayed on T1, S. aureus MSSA476. Details: relative growth, OD600, TSB; 25 µM; inhibitor.
T1 construct: MSSA476
Design: species or system S. aureus MSSA476 (TSB) or V. cholerae SAD30 (LB); 384-well bacterial growth screen at 25 uM, OD600 relative to DMSO control

First: CC(Cl)C(=O)N(C)Cc1cn(C)nc1C(F)(F)F (centres unmarked) [7-M04, 2-chloro-N-methyl-N-{[1-methyl-3-(trifluoromethyl)-1H-pyrazol-4-yl]methyl}propanamide]
Second: C=CC(=O)N1CCCC1c1cn(C)nc1C (centres unmarked) [3-M09, 1-[2-(1,3-dimethyl-1H-pyrazol-4-yl)pyrrolidin-1-yl]prop-2-en-1-one]
The “% of control remaining” value of the first is lower: 97.0173% for the first, 114.236% for the second.

Compared with `CC(Cl)C(=O)NCc1ccco1` (centres unmarked) [5-B09, 2-chloro-N-[(furan-2-yl)methyl]propanamide], `COc1ccccc1NC(=O)C(C)Cl` (centres unmarked) [5-L20, 2-chloro-N-(2-methoxyphenyl)propanamide] is lower in “% of control remaining” value: 118.761% for the first, 99.0893% for the second.

Compared with `Cc1cccc2nc(C3CCN(C(=O)C(C)Cl)CC3)oc12` (centres unmarked) [7-M12, 2-chloro-1-[4-(7-methyl-1,3-benzoxazol-2-yl)piperidin-1-yl]propan-1-one], `CC(Oc1cccc(F)c1F)C(=O)N1CCN(C(=O)CCl)CC1` (centres unmarked) [5-H03, 1-[4-(2-chloroacetyl)piperazin-1-yl]-2-(2,3-difluorophenoxy)propan-1-one] is higher in “% of control remaining” value: 86.9702% for the first, 90.7104% for the second.

Compared with `CC(c1cccs1)N(C)C(=O)CCl` (centres unmarked) [6-M21, 2-chloro-N-methyl-N-[1-(thiophen-2-yl)ethyl]acetamide], `O=C(CCl)Nc1nc(-c2cccs2)cs1` [5-D18, 2-chloro-N-[4-(thiophen-2-yl)-1,3-thiazol-2-yl]acetamide] is lower in “% of control remaining” value: 85.7073% for the first, 71.7668% for the second.

First: O=C(CCl)N1CCC(OCc2ccccc2)CC1 [4-H19, 1-[4-(benzyloxy)piperidin-1-yl]-2-chloroethan-1-one]
Second: C=CC(=O)N1CCC(C(=O)NCc2nccn2-c2ccccc2)CC1 [3-B03, N-[(1-phenyl-1H-imidazol-2-yl)methyl]-1-(prop-2-enoyl)piperidine-4-carboxamide]
The “% of control remaining” value of the first is lower: 111.672% for the first, 120.505% for the second.

First: COCC(C)NC(=O)C(C#N)=Cc1ccc(F)c(C)c1 (centres unmarked) [9-H09, 2-cyano-3-(4-fluoro-3-methylphenyl)-N-(1-methoxypropan-2-yl)prop-2-enamide]
Second: CC(C)NC(=O)C(C#N)=Cc1ccc2ccccc2c1 [9-C13, 2-cyano-3-(naphthalen-2-yl)-N-(propan-2-yl)prop-2-enamide]
The “% of control remaining” value of the first is higher: 106.667% for the first, 101.273% for the second.

First: C=CC(=O)NCCc1cnc2c(Cl)cnn2c1 [1-L06, N-(2-{3-chloropyrazolo[1,5-a]pyrimidin-6-yl}ethyl)prop-2-enamide]
Second: C=CC(=O)NCCc1ccccc1OC [2-O03, N-[2-(2-methoxyphenyl)ethyl]prop-2-enamide]
The “% of control remaining” value of the first is higher: 110.769% for the first, 95.7354% for the second.

Going from `C=CC(=O)NCCN1C(=O)SC(=Cc2ccc(Cl)cc2)C1=O` [2-C05, N-(2-{5-[(4-chlorophenyl)methylidene]-2,4-dioxo-1,3-thiazolidin-3-yl}ethyl)prop-2-enamide] to `C=CC(=O)NCCC(=O)N1CCC2(CC(=O)c3ccccc3O2)C1` (centres unmarked) [1-F12, N-(3-oxo-3-{4-oxo-3,4-dihydrospiro[1-benzopyran-2,3'-pyrrolidin]-1'-yl}propyl)prop-2-enamide], the “% of control remaining” value rises from 95.3873% to 100.923%.

Compared with `CC(Cl)C(=O)NCc1nc2c(s1)CC(c1ccccc1)CC2` (centres unmarked) [7-A05, 2-chloro-N-[(6-phenyl-4,5,6,7-tetrahydro-1,3-benzothiazol-2-yl)methyl]propanamide], `CC(Cl)C(=O)NCCc1nc2cc(F)ccc2s1` (centres unmarked) [7-P11, 2-chloro-N-[2-(5-fluoro-1,3-benzothiazol-2-yl)ethyl]propanamide] is higher in “% of control remaining” value: 74.7253% for the first, 101.099% for the second.

Compared with `C=CC(=O)N(CC)CC(=O)N1CCNC(=O)CC1c1ccccc1` (centres unmarked) [3-E21, N-ethyl-N-[2-oxo-2-(5-oxo-7-phenyl-1,4-diazepan-1-yl)ethyl]prop-2-enamide], `C=CC(=O)N(CC)CC(=O)N1CCN(c2ccsc2C#N)CC1` [3-L05, N-{2-[4-(2-cyanothiophen-3-yl)piperazin-1-yl]-2-oxoethyl}-N-ethylprop-2-enamide] is lower in “% of control remaining” value: 104.832% for the first, 103.091% for the second.

Going from `COc1ccc(O)c(C=C(C#N)C(=O)Nc2cccc3ccccc23)c1` [8-N14, 2-cyano-3-(2-hydroxy-5-methoxyphenyl)-N-(naphthalen-1-yl)prop-2-enamide] to `N#CC(=Cc1cccc(O)c1)C(=O)Nc1ccccc1C(=O)O` [9-O16, 2-[2-cyano-3-(3-hydroxyphenyl)prop-2-enamido]benzoic acid], the “% of control remaining” value falls from 101.909% to 71.6105%.

Compared with `N#CC(=Cc1ccc(F)cc1)C(=O)NCCc1cccc(Cl)c1` [8-K06, N-[2-(3-chlorophenyl)ethyl]-2-cyano-3-(4-fluorophenyl)prop-2-enamide], `N#CC(=Cc1cccc(F)c1)C(=O)NCc1ccccc1` [9-K09, N-benzyl-2-cyano-3-(3-fluorophenyl)prop-2-enamide] is higher in “% of control remaining” value: 83.3195% for the first, 92.5843% for the second.

First: Cc1ncccc1NC(=O)[C@H](C)NC(=O)C(C)Cl (stereo partly drawn) [6-D09, 2-chloro-N-[(1S)-1-[(2-methylpyridin-3-yl)carbamoyl]ethyl]propanamide]
Second: COc1ccc(C)cc1NC(=O)C(C)Cl (centres unmarked) [5-P22, 2-chloro-N-(2-methoxy-5-methylphenyl)propanamide]
The “% of control remaining” value of the first is lower: 83.3171% for the first, 87.796% for the second.

Going from `Cn1cc(C=C(C#N)C(=O)NCCc2ccccc2)cn1` [8-L10, 2-cyano-3-(1-methyl-1H-pyrazol-4-yl)-N-(2-phenylethyl)prop-2-enamide] to `CC(=Cc1ccccc1)C=C(C#N)C(=O)Nc1nccs1` [8-F08, 2-cyano-4-methyl-5-phenyl-N-(1,3-thiazol-2-yl)penta-2,4-dienamide], the “% of control remaining” value rises from 117.842% to 126.473%.

Going from `COc1cc(C)c(C(C)NC(=O)CCl)cc1OC` (centres unmarked) [6-M09, 2-chloro-N-[1-(4,5-dimethoxy-2-methylphenyl)ethyl]acetamide] to `CCc1cc(SC#N)cc(C)c1NC(=O)CCl` [4-M04, 2-chloro-N-[4-(cyanosulfanyl)-2-ethyl-6-methylphenyl]acetamide], the “% of control remaining” value falls from 116.439% to 101.382%.

First: N#CC(=Cc1cnn(-c2ccc(Cl)cc2)c1)C(=O)NC1CCCCC1 [8-A08, 3-[1-(4-chlorophenyl)-1H-pyrazol-4-yl]-2-cyano-N-cyclohexylprop-2-enamide]
Second: Cc1cnc(-c2cccc(NC(=O)C(C#N)=Cc3ccco3)c2)o1 [9-M18, 2-cyano-3-(furan-2-yl)-N-[3-(5-methyl-1,3-oxazol-2-yl)phenyl]prop-2-enamide]
The “% of control remaining” value of the first is higher: 111.203% for the first, 100.674% for the second.

Compared with `CC(Cl)C(=O)Nc1ccc(C(C)(C)C)cc1` (centres unmarked) [4-G12, N-(4-tert-butylphenyl)-2-chloropropanamide], `CC(C)N(C)S(=O)(=O)c1ccc(NC(=O)CCl)cc1` [4-K13, 2-chloro-N-{4-[methyl(propan-2-yl)sulfamoyl]phenyl}acetamide] is higher in “% of control remaining” value: 87.2797% for the first, 115.865% for the second.

First: C=CC(=O)N1CCC(C(=O)NCc2ncnn2CC)CC1 [3-P03, N-[(1-ethyl-1H-1,2,4-triazol-5-yl)methyl]-1-(prop-2-enoyl)piperidine-4-carboxamide]
Second: CCOC=C(C#N)C(=O)N1CCN(S(=O)(=O)c2cc[nH]n2)CC1 [9-D06, 3-ethoxy-2-[4-(1H-pyrazole-3-sulfonyl)piperazine-1-carbonyl]prop-2-enenitrile]
The “% of control remaining” value of the first is higher: 135.829% for the first, 105.468% for the second.

Going from `O=C(CCl)Nc1ccccc1C(=O)c1ccccc1` [4-J06, N-(2-benzoylphenyl)-2-chloroacetamide] to `O=C(CCl)Nc1ccc(OC(F)F)cc1` [4-J10, 2-chloro-N-[4-(difluoromethoxy)phenyl]acetamide], the “% of control remaining” value rises from 85.7551% to 103.668%.

First: C=CC(=O)N(Cc1cnn(C2CCC2)c1)C1CCCc2occc21 (centres unmarked) [2-G07, N-[(1-cyclobutyl-1H-pyrazol-4-yl)methyl]-N-(4,5,6,7-tetrahydro-1-benzofuran-4-yl)prop-2-enamide]
Second: C=CC(=O)N(CCC(N)=O)C1CCOc2ccccc21 (centres unmarked) [3-F13, N-(2-carbamoylethyl)-N-(3,4-dihydro-2H-1-benzopyran-4-yl)prop-2-enamide]
The “% of control remaining” value of the first is higher: 127.763% for the first, 116.326% for the second.

First: CC(C)C(NC(=O)CCl)c1ccc(F)cc1 (centres unmarked) [4-E13, 2-chloro-N-[1-(4-fluorophenyl)-2-methylpropyl]acetamide]
Second: COC(=O)c1ccc(C=C(C#N)C(=O)NC(C)C)n1C [9-P12, methyl 5-{2-cyano-2-[(propan-2-yl)carbamoyl]eth-1-en-1-yl}-1-methyl-1H-pyrrole-2-carboxylate]
The “% of control remaining” value of the first is higher: 99.0948% for the first, 89.8876% for the second.

First: CC(O)=C(C#N)C(=O)Nc1ccc(-c2ccccc2Cl)c(Cl)c1 [9-L22, 2-cyano-N-{2,2'-dichloro-[1,1'-biphenyl]-4-yl}-3-hydroxybut-2-enamide]
Second: C=CC(=O)Nc1ccc(C(=O)N(C)C[C@@H]2CCC(=O)N2)cc1 [2-L18, N-methyl-N-{[(2S)-5-oxopyrrolidin-2-yl]methyl}-4-(prop-2-enamido)benzamide]
The “% of control remaining” value of the first is lower: 33.2584% for the first, 106.179% for the second.
